96 compounds from PubChem BioAssay AID1508642 (National Center for Advancing Translational Sciences (NCATS), 2021) can be followed below.

Molecules are shown by their SMILES. The whole screen tested about 43,000 compounds, of which about 200 (0.47%) were called active. About 12% were inconclusive and are not listed. The call rests on the fitted dose curve; in most records, active means well fitted cell-killing curve with a large enough effect; inconclusive means small, poorly fitted or top-dose-only effect, or effect the other way; inactive means flat fitted curve, though single readings scatter. The list shows a part of the results.
On the % scale 0 is the no-effect control and ±100 the full control effect.

A short description of this assay: Cell viability qHTS assay in S16 Pmp22-F2sN cells. Further: nearly all actives have a fitted effect of over 65% in size. The settings on record: S16 Pmp22-F2sN Schwann cells viability, CellTiter-Glo, 24 h; series mostly up to 57.5 µM; activity change, negative = cytotoxicity: at the top concentration. In short, it runs like this: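 S16 Pmp22-F2sN Schwann cells (500-1,000/well) in phenol-red-free DMEM with 10% FBS received 23 nL compound by pin tool for 24 h at 37 °C. Viability was then read as CellTiter-Glo luminescence after 15 min at room temperature.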
In the case of `CCOC(=O)c1c(S(=O)(=O)N2CCC(C(=O)NCc3ccccc3OC)CC2)c(C)n(C)c1C`, the “activity change, negative = cytotoxicity” value is inactive: 2.94%. The figure for `Cc1cc(C)cc(OCC(=O)N(Cc2ccc(Cl)cc2)CC2CCCO2)c1` (stereo unspecified) is inactive: -4.24%; for `CCCCSCCCNC(=O)c1cn(C)c2ccc(S(=O)(=O)N3CCCC3)cc2c1=O` it is inactive: -15.6%; for `CC1CCCCN1S(=O)(=O)c1cc2c3c(c1)CC(=O)N3CCC2` (stereo unspecified) it is inactive: -37.3%. With `COc1ccc(N2CCN(CCCNC(=O)c3cc(Nc4ccccc4OC)nc4ccccc34)CC2)cc1` the figure was inactive: 19%. With `COc1cc(C(=O)N2CCN(c3ccc(Nc4ccccc4)nn3)CC2)cc(OC)c1OC` the figure was inactive: -26.8%. With `Cc1ccc(-n2nnnc2CNC(=O)c2ccccc2)cc1C`, the “activity change, negative = cytotoxicity” value was inactive: -4.23%. The figure for `CC(C)c1ccc(NC(=O)C2(C)Cc3ccccc3C(=O)O2)cc1` (stereo unspecified) is inactive: -3.21%; for `CC(C)C(NS(=O)(=O)c1cccc2cccnc12)C(=O)Nc1ccc(OC(F)(F)F)cc1` (stereo unspecified) it is inactive: 1.89%. With `O=C(c1ccccc1)c1ccc2nc(Nc3cc(Cl)ccc3O)c3nncn3c2c1` the figure was inactive: 1.42%. With `Cc1ccc2c(c1)-c1c(cnn1CC(=O)N1CCN(c3cc(Cl)ccc3C)CC1)CO2` the figure was inactive: 9.89%. As for `Cc1cc(C)c(NC(=O)CCC(=O)N2Cc3ccccc3Oc3ncccc32)c(C)c1`, the “activity change, negative = cytotoxicity” value is inactive: -1.54%. The figure for `COC(=O)c1ccccc1NC(=O)Cn1c(=O)n(CCCC(=O)NCCc2ccc(OC)c(OC)c2)c(=O)c2ccccc21` is inactive: 18.8%. For the compound `CCCOc1ccc(C2c3c(oc4ccccc4c3=O)C(=O)N2c2nc(C)c(C(=O)OCC)s2)cc1` (stereo unspecified), the “activity change, negative = cytotoxicity” value is inactive: 1.9%. With `COc1ccc(S(=O)(=O)NCc2ccc(C(=O)NCc3ccccc3)cc2)cc1` the figure was inactive: 2.32%; with `Cc1ccc(-c2nc(C)c(CCNC(=O)C(=O)Nc3ccc4c(c3)OCO4)s2)cc1`, inactive: 17.5%.

Consider `COc1ccc(CCN2C(=O)N(c3ccccc3)C(=O)C2CC(=O)Nc2ccccc2)cc1` (stereo unspecified), for which the “activity change, negative = cytotoxicity” value was inactive: 2.05%. The figure for `CCc1ccc(NC(=O)c2cc3c([nH]c2=O)CC(C)(C)CC3=O)cc1` is inactive: 17.6%; for `COc1ccc(CNC(=O)c2ccc(-c3nc(CSc4ccccc4)c(C)o3)cc2)c(OC)c1` it is inactive: 1.95%; for `N#Cc1c[nH]n2c(NC3CCCCC3)c(-c3cccc(Cl)c3)nc12` it is inactive: -4.97%. With `CCOc1ccc2oc(=O)cc(CN3CCN(c4ccccc4)CC3)c2c1` the figure was inactive: -23.6%. With `Cc1nc(N2CCOCC2)c2c(C(=O)N3CCN(c4cccc(C)c4C)CC3)c(C)oc2n1`, the “activity change, negative = cytotoxicity” value is inactive: -8.61%. The figure for `COc1cc(C(=O)N2CC(=O)Nc3ccc(C)cc3C2c2ccc(F)cc2)cc(OC)c1OC` (stereo unspecified) is inactive: -1.46%; for `CCOC(=O)C1CCN(CCC(=O)Nc2ccc(OC)cc2)CC1` it is inactive: 24%. The figure for `CCCN1C(=O)C2(c3ccccc31)c1c(oc3ccc(C)cc3c1=O)C(=O)N2CCOC` (stereo unspecified) is inactive: 5.84%; for `COc1ccc(NC(=O)c2cn3c4c(ccc(Cl)c4c2=O)OC(C)C3)cc1OC` (stereo unspecified) it is inactive: -3.51%. With `CSc1ncc(C(=O)Nc2ccc(C(C)=O)cc2)c(-c2ccccc2)n1` the figure was inactive: 0.659%.

For `CCOc1ccc2nc(NC(=O)c3cc(=O)c4cc(C)cc(C)c4o3)sc2c1`, the “activity change, negative = cytotoxicity” value was inactive: 13.8%. With `Cc1cccc(NC(=O)CSc2nc3c(oc4ccccc43)c(=O)n2-c2ccc(F)cc2)c1` the figure was inactive: -9.49%. The figure for `COc1ccc2c(CNCCc3ccccc3)c(C(=O)O)n(Cc3cccc(F)c3)c2c1` is inactive: 11.7%; for `O=S(=O)(c1ccc2nc(N3CCN(c4ccccc4)CC3)ccc2c1)N1CCCCC1` it is inactive: 9.05%; for `Cc1ccc(NC(=O)CC(C)S(=O)(=O)c2ccc3c(c2)NC(=O)CO3)cc1C` (stereo unspecified) it is inactive: -2.48%. With `Cc1cc(-c2ccc(S(=O)(=O)Nc3ccc(Br)c(C)c3)s2)on1`, the “activity change, negative = cytotoxicity” value is inactive: -15.6%. With `CSc1nnc2[nH]c(=O)cc(C)n12` the figure was inactive: 1.45%; with `Cc1cccc(NC(=O)Cc2ccc(-n3c(C)nc4cccnc43)cc2)c1C`, inactive: -12.3%.

On to `O=c1c2cnn(-c3ccc(F)cc3)c2ncn1Cc1ccc(F)cc1`, for which the “activity change, negative = cytotoxicity” value was inactive: 13%. Regarding `COc1ccc(Cl)cc1NC(=O)Cn1cc2c(n1)CCC(C)C2` (stereo unspecified), the “activity change, negative = cytotoxicity” value is inactive: -2.07%.

In the case of `COC(=O)c1cc2oc(C)cc2n1CC(=O)Nc1cc(Cl)ccc1OC`, the “activity change, negative = cytotoxicity” value was inactive: -1.92%.

Take `O=C(CSc1ncc(CO)n1Cc1ccc(Cl)cc1)NCc1ccc(F)cc1`: the “activity change, negative = cytotoxicity” value was inactive: -3.29%.

Turning to `COc1ccc(C(=O)Oc2cc(-c3ccc4c(c3)OCO4)cc(=O)c3c(C)oc(C)c23)cc1`, the “activity change, negative = cytotoxicity” value was inactive: 6.51%. With `Cc1cccc(NC(=O)CSc2nc(=O)n(Cc3ccccn3)c3c2CCC3)c1C` the figure was inactive: 2.05%.

For `COc1ccc(CNC(=O)c2cc3cccc4c3n2CC(C)S4)c(OC)c1` (stereo unspecified), the “activity change, negative = cytotoxicity” value is inactive: -24.2%. With `Cc1ccc(Cl)cc1NC(=O)CSc1nc2c(c(=O)[nH]1)CN(Cc1ccccc1)CC2` the figure was inactive: 6.4%; with `COc1ccc(S(=O)(=O)N2CCN(CC(=O)Nc3ccc(Cl)c(C(F)(F)F)c3)CC2)cc1`, inactive: -19.3%. The figure for `CCOc1ccc(NC(=O)N(C(C)C)C2CCN(C(C)=O)CC2)cc1` is inactive: 3.94%; for `CCOC(=O)c1ccc(NC(=O)CCc2c(C)nc3c(-c4ccc(F)cc4)c(C)nn3c2C)cc1` it is inactive: 18.4%; for `Cc1ccc(-c2onc(C)c2C)cc1S(=O)(=O)Nc1ccc(Cl)cn1` it is inactive: -4.67%. The figure for `Cc1ccccc1C(=O)Nc1ccc(C(=O)OCc2cc(=O)n3nc(C(C)C)sc3n2)cc1` is inactive: 1.06%. Take `COc1ccc(NC(=O)C2Cc3ccccc3N2C(=O)c2ccccc2)cc1OC` (stereo unspecified): the “activity change, negative = cytotoxicity” value is inactive: 2.12%. The figure for `COc1ccc(CNC(=O)CSc2ncc(S(=O)(=O)c3ccc(Br)cc3)c(=O)[nH]2)cc1` is inactive: 1.6%; for `COC(=O)c1cccc(Nc2nn3c(=O)c4cc5c(cc4nc3s2)OCO5)c1` it is inactive: 0.826%; for `COc1ccc(S(=O)(=O)NCC(c2ccc(N(C)C)cc2)N2CCOCC2)cc1` (stereo unspecified) it is inactive: -3.17%.

Regarding `CCOc1ccc(CNC(=O)c2sc3ncnc(N(C)C4CCCCC4)c3c2C)cc1`, the “activity change, negative = cytotoxicity” value is inactive: -7.87%.

For the compound `NC(=O)c1ccccc1NC(=O)Cn1nc(Cc2cccnc2)c2ccccc2c1=O`, the “activity change, negative = cytotoxicity” value is inactive: 1.33%. With `CCNc1oc(-c2ccc(COc3ccc(Cl)cc3)o2)nc1C#N` the figure was inactive: 2.78%.

With `CCCCOc1ccc(CNC(=O)Cc2ccc(NC(=O)N3CCSc4ncccc43)cc2)cc1`, the “activity change, negative = cytotoxicity” value is inactive: -26%. Regarding `Cc1nn(-c2ccc(N3CCOCC3)nn2)c(C)c1CCC(=O)NCc1ccccc1F`, the “activity change, negative = cytotoxicity” value was inactive: -14.5%.

Take `O=C(OCc1cccc(C(F)(F)F)c1)c1ccc(-c2nnn(Cc3ccc(F)cc3)n2)cc1`: the “activity change, negative = cytotoxicity” value is inactive: 2.82%.

On to `Cc1nn(C(=O)c2ccccc2)c(C)c1S(=O)(=O)N1CCCCCC1`, for which the “activity change, negative = cytotoxicity” value is inactive: 12.5%. With `CCN(C(=O)c1cn(-c2ccc(OC)cc2)c(=O)c2ccccc12)c1cccc(Cl)c1` the figure was inactive: -3.57%; with `CCn1c(=N)c(C(=O)NC2CCCC2)cc2c(=O)n3ccccc3nc21`, inactive: 1.28%.

Consider `COc1ccc(C)cc1-n1c(-c2ccc(C)cc2)cc2c1CC(C)(C)CC2=O`, for which the “activity change, negative = cytotoxicity” value was inactive: 0.792%. Regarding `O=C(Cn1c2ncccc2c(=O)n1-c1ccccc1)Nc1ccc(Cl)cc1C(F)(F)F`, the “activity change, negative = cytotoxicity” value was inactive: -1.64%. With `CCCCCn1cc2c(c1-c1ccc(Cl)cc1)c(=O)n(C)c(=O)n2C` the figure was inactive: 4.18%; with `COc1ccc2c(c1)C=C(C(=O)NCc1cc(Br)ccc1OC)CO2`, inactive: -16.3%.

Turning to `Cc1cccc(C(=O)Nc2ccc3oc(-c4ccncc4)nc3c2)c1`, the “activity change, negative = cytotoxicity” value was inactive: 17.8%. The figure for `COc1ccccc1NC(=O)c1sc2ncn(Cc3ccccc3Cl)c(=O)c2c1C` is inactive: 0.431%; for `CCOC(=O)C1CCCN(S(=O)(=O)c2ccc3[nH]c(=O)oc3c2)C1` (stereo unspecified) it is inactive: -22.1%.

As for `CCc1ccccc1NC(=O)c1sc(-n2nc(C)c(Cc3ccc4c(c3)OCO4)c2C)nc1C`, the “activity change, negative = cytotoxicity” value was inactive: -0.648%. The figure for `CC(C)N1CCc2nc(SCC(=O)Nc3cccc(F)c3)[nH]c(=O)c2C1` is inactive: -29.8%; for `COc1ccc(-c2nc3scc(CCNC(=O)c4cc(OC)cc(OC)c4)n3n2)cc1` it is inactive: -0.896%. The figure for `CCC(C)Sc1c(C(C)C)cnc2c1c(=O)n(C)c(=O)n2C` (stereo unspecified) is inactive: 0.0964%.

On to `COc1ccc(-c2cc(C(F)(F)F)c(C#N)c(SCC(=O)Nc3ccccc3F)n2)cc1`, for which the “activity change, negative = cytotoxicity” value was inactive: 4.73%. The figure for `COc1cccc(CN2C(=O)CN(C3CCCCC3)C(=O)C2c2ccc(OC)c(OC)c2)c1` (stereo unspecified) is inactive: -1.26%; for `COc1ccc2c(c1)c1c(c(=O)n(-c3ccccc3C)c(=O)n1CC(=O)N1CCCC1)n2C` it is inactive: 6.99%. The figure for `COc1ccc(C2C=C(c3ccccc3)Nc3nc(NC(=O)/C=C/c4ccc(F)cc4)nn32)cc1` (stereo unspecified) is inactive: 3.88%; for `COc1ccccc1C(=O)Nc1ccc(OCc2cc(=O)n3ccc(C)cc3n2)cc1` it is inactive: 2.63%.

`COc1ccc(-n2c(/C=C/c3c(C)[nH]c4ccccc34)nc3ccccc3c2=O)cc1`: the “activity change, negative = cytotoxicity” value is inactive: 11%. With `COc1cccc(CNc2nccn(-c3ccc(OC)c(OC)c3)c2=O)c1` the figure was inactive: 24%. With `Cc1nn(C)c2c1c(-c1ccccc1)cc(=O)n2Cc1ccc(Cl)cc1` the figure was inactive: -14.4%; with `COc1ccc(Cn2ccc3nc(C)c(C(=O)N4CCN(c5ccccc5)CC4)cc3c2=O)cc1`, inactive: -12.3%. The figure for `COc1ccc(C(=O)c2oc3ccccc3c2NC(=O)c2ccc(F)cc2)cc1` is inactive: 3.11%. Take `CCOC(=O)c1ccc(NC(=O)c2cn(-c3ccccc3)nc2-c2ccc(Br)cc2)cc1`: the “activity change, negative = cytotoxicity” value is inactive: 2.22%. The figure for `Cc1ccc(Nc2sc(C(=O)c3ccccc3)c(N)c2C(=O)NC(C)C)cc1` is inactive: -0.102%; for `CCc1nonc1NC(=O)c1oc2cc(C)c(Cl)cc2c1C` it is inactive: 3.48%. Regarding `COc1ccc(NC(=O)CSc2oc(-c3cccs3)nc2S(=O)(=O)c2ccc(Br)cc2)c(OC)c1`, the “activity change, negative = cytotoxicity” value was inactive: 0.151%. The figure for `CCOc1ccc(C(=O)c2cn(Cc3ccccc3OC)c3cc4c(cc3c2=O)OCCO4)cc1` is inactive: 10.7%; for `CCCCN(CC)CCNC(=O)c1cn(CCOC)c(=O)c2c1c1ccccc1n2C` it is inactive: -26.8%. `CCC(=O)N1CCc2cc(S(=O)(=O)CCC(=O)Nc3ccc(Cl)c(C(F)(F)F)c3)ccc21`: the “activity change, negative = cytotoxicity” value is inactive: -15.7%. With `COc1ccccc1N1CCN(C(=O)c2sc3nc4n(c(=O)c3c2C)CCC4)CC1` the figure was inactive: 3.65%; with `CCOC(=O)c1ccc(NC(=O)CSc2ccc(-c3sc(C)nc3C)nn2)cc1`, inactive: 0.395%; with `O=C(NC1CC(=O)N(c2cccc(F)c2)C1)c1ccc(S(=O)(=O)N2CCOCC2)cc1` (stereo unspecified), inactive: 10.9%. With `Cc1ccc(NC(=O)Cn2c(=O)oc3ccccc32)cc1Cl` the figure was inactive: 3.26%; with `COc1ccccc1CN1COc2ccc3c(C)cc(=O)oc3c2C1`, inactive: 15%. In the case of `O=C(NCc1ccccc1Cl)C1CCC(CNS(=O)(=O)c2ccc(Cl)cc2)CC1` (stereo unspecified), the “activity change, negative = cytotoxicity” value is inactive: 29.2%.

Regarding `COc1cccc(NC(=O)N2CCC(n3c(C)nc4cccnc43)CC2)c1`, the “activity change, negative = cytotoxicity” value is inactive: -1.98%.
